Data reported in PubChem BioAssay AID1468 (National Center for Advancing Translational Sciences (NCATS), 2008).
Several values for one entry are separate records, joined by “and”; a condition that tells them apart may be missing. Equal entries are not always repeated. About 1,100 (0.39%) of roughly 280,000 compounds were called active. The inconclusive results got no clear call from the source; some entries with a clear call stand among them for comparison. Calls come from the whole dose curve; as a rule, active = well fitted inhibition curve with a large enough effect; inconclusive = small, poorly fitted or top-dose-only effect, or effect the other way; inactive = flat fitted curve, though single readings scatter. Potencies of inconclusive entries are doubtful fits and often do not repeat.

Target: Microtubule-associated protein tau (Homo sapiens) (UniProt P10636)
Sequence of UniProt P10636 (P10636 whole entry, looked up): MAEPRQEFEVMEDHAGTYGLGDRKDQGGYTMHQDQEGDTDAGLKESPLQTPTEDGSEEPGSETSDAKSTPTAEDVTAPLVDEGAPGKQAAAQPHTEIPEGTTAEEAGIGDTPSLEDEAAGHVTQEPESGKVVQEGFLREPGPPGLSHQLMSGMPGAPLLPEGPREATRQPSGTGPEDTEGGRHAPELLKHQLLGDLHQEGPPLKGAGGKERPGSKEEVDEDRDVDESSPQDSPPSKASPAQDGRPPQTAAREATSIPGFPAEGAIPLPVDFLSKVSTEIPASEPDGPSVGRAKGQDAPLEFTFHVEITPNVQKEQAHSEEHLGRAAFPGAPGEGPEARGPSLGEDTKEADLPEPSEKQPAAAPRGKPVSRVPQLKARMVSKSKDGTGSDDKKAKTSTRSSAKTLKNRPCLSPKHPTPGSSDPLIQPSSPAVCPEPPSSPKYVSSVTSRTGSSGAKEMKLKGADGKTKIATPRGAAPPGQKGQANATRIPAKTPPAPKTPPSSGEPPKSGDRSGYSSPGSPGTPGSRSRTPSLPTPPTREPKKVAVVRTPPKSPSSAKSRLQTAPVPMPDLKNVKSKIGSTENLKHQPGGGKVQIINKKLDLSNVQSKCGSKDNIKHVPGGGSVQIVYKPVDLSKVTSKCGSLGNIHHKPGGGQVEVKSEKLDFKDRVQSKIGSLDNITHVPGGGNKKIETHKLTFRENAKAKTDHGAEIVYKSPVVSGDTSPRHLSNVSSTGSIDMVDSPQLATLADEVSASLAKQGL
Assay: qHTS for Inhibitors of Tau Fibril Formation, Fluorescence Polarization; note: nearly all actives have a fitted effect of over 55% in size
Conditions: K18 P301L tau heparin fibrillization, Alexa594 FP, 6 h; series mostly up to 57.7 µM; activity, negative = inhibition: at the top concentration
Method in brief: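 FP of Alexa 594-tau after heparin (20 uM) induction. Substrate: human K18 P301L, 15 uM unlabeled, 0.24 uM labeled. Buffer 100 mM sodium acetate pH 7. 6 hr, 37 C.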
% is set by controls: 0 for no effect and ±100 for the full control effect; potency is the fitted concentration of half-maximal effect; tags give direction and shape of the fitted curve.

Structure (SMILES) | Potency | activity, negative = inhibition
COc1cc(NCCCC(C)N)c2ncccc2c1 (stereo not given) | inconclusive: 17.8 µM [inhibitor, partial curve] | 
O=C(N/N=C/c1ccco1)c1ccc(C(=O)N/N=C/c2ccco2)o1 | inconclusive: 22.4 µM [inhibitor, single point] | 
CCCn1c(SCC(O)c2cccc(OC)c2)nc2ccccc21 (stereo not given) |  | inactive: 1.66%
Cc1cc(C)c(NC(=O)C2CSCCS2)c(C)c1 (stereo not given) |  | inactive: 0.705%
O=C1C(Nc2ccccc2)=C(N2CCCCC2)C(=O)c2ccccc21 | inconclusive: 22.4 µM [inhibitor, partial curve] | 
O=C(O)CCCCCNC(=O)Cn1nnc2ccccc2c1=O |  | inactive: 5.52%
CC1(C)OC(C)(C)/C(=C/Nc2ccc(O)cc2)C1=O | inconclusive: 39.8 µM [inhibitor, single point] | 
COc1ccc(S(=O)(=O)NCc2ccc3c(c2)OCO3)cc1C | inconclusive: 0.0251 µM [inhibitor, full curve, poor fit] | 
CC(=O)n1nc(-c2ccccc2)nc1NCc1ccc(F)cc1 |  | inactive: -0.0667%
Cc1ccc(C(=O)Nc2nnc(-c3ccco3)o2)cc1C |  | inactive: -4.83%
CC(Nc1nc(N2CCCC2)nc2ccccc12)c1ccccc1 (stereo not given) | inconclusive: 3.16 µM [inhibitor, single point] | 
CCC(=O)c1cc2c(C)cc(=O)oc2c(C)c1O | inconclusive: 0.0251 µM [inhibitor, full curve, poor fit] | 
CN(C)C(=O)c1ccc(Oc2ccc(C(=O)N(C)C)cc2)cc1 |  | inactive: -4.62%
CCCOc1cccc(C(=O)Nc2ccc(-c3nc4ccccc4s3)c(Cl)c2)c1 | inconclusive: 3.98 µM [inhibitor, full curve] | 
Cc1ccc(-c2csc(-c3c[nH]c4ccccc34)n2)c(C)c1 | inconclusive: 39.8 µM [inhibitor, single point] | 
COc1ccc(CNC[C@@H](CCCCN(C)Cc2ccc(OC)cc2)N2C[C@H](c3ccccc3)N(CCc3ccc(Cl)c(Cl)c3)C(=O)C2=O)cc1 |  | inactive: -5.82%
C[C@@H]1c2ccccc2CN1CC1=NCCN1 | inconclusive: 17.8 µM [inhibitor, partial curve] | 
CCCCN(NC(C)=O)c1nc(Cl)nc(NC(C)C)n1 |  | inactive: -0.7%
CCn1c2c(c(=O)n3ncc(C(=O)Nc4cccc(Cl)c4C)c13)CN(Cc1ccc(OC)cc1)CC2 | inconclusive: 44.7 µM [inhibitor, single point] | 
COc1ccc(CNC(=O)C2CCN(c3nc4ccc(C)cc4[nH]3)CC2)cc1 |  | inactive: -1.16%
C/C(=N\Nc1ccc([N+](=O)[O-])cc1)c1cccc(N)c1 | inconclusive: 25.1 µM [activator, single point] | 
COc1ccc(CNC(=O)CCCNS(=O)(=O)c2cccc3nonc23)cc1 |  | inactive: 3.18%

Structure (SMILES) | Potency | activity, negative = inhibition
O=C(Nc1ccc(Cl)c(S(=O)(=O)N2CCOCC2)c1)c1cc(-c2ccccn2)nc2ccccc12 | inconclusive: 15.8 µM [inhibitor, partial curve] | 
O=C(Cc1cc(=O)[nH][nH]1)N/N=C/C=C/c1ccccc1 | inconclusive: 14.1 µM [inhibitor, partial curve] and inconclusive: 4.47 µM [inhibitor, full curve] | 
O=C(c1ccco1)N1CCN(C2CC(=O)N(c3ccccc3)C2=O)CC1 (stereo not given) |  | inactive: -1.98%
Cc1cccc2c1-c1sc(C(=O)NCCc3ccc(Cl)cc3)cc1CO2 | inconclusive: 7.94 µM [inhibitor, full curve] | 
COc1ccccc1C1C2=C(N=c3s/c(=C/c4cccc(OCC(=O)O)c4)c(=O)n31)c1ccccc1CC2 (stereo not given) | inconclusive: 39.8 µM [inhibitor, single point] | 
COc1ccc(O[C@H]2C=C[C@@H](c3ccccc3)O[C@H]2COC(=O)CC/C(C)=N\O[C@@H](C)c2cn([C@H](CO)Cc3ccccc3)nn2)cc1 |  | inactive: 10.7% [at 11.6 µM] and inactive: 3.39% [at 11.6 µM]
COC(=O)C(C)c1ccc(C(=O)c2cccs2)cc1 (stereo not given) |  | inactive: -13.3%
COc1ccc(NC(=O)c2c(N)c(C(=O)c3ccc(C)cc3)n3ccccc23)cc1OC |  | inactive: -3.06%
Cc1ccc(C)c(CN2C(=O)c3ccccc3Sc3ccc(C(=O)NCc4cccs4)cc32)c1 | inconclusive: 44.7 µM [inhibitor, single point] | 
CC(=O)Nc1cccc(/C(C)=N/NC(=O)c2cc(-c3ccncc3)nc3ccccc23)c1 | inconclusive: 15.8 µM [inhibitor, single point] | 
COc1ccccc1NC(=O)CC1C(=O)Nc2ccccc2N1C(=O)c1ccccc1 (stereo not given) | inconclusive: 10 µM [activator, partial curve] | 
CC1CCC(N2CC(=O)N(C3CCCC3)C(c3ccc(Cl)cc3)C2=O)CC1 (stereo not given) |  | inactive: -13.8%
Cc1cc(NC(=O)c2ccc(S(=O)(=O)N3CCc4ccccc43)cc2)no1 | inconclusive: 44.7 µM [inhibitor, single point] | 
C=C(C)CN1C(=O)C(O)(CC(=O)c2ccc3c(c2)OCCO3)c2ccccc21 (stereo not given) |  | inactive: -1.66%
COc1cc2[nH]c(C(=O)NN)c(N)c2cc1OC | inconclusive: 22.4 µM [inhibitor, partial curve, poor fit] | 
Cc1ccc(-c2nnc(Nc3ccc(Cl)cc3)c3ccccc23)cc1S(=O)(=O)N1CCOCC1 | inconclusive: 25.1 µM [inhibitor, partial curve, poor fit] | 
COC(=O)c1[nH]c(C)c(/C(O)=C2\C(=O)C(=O)N(CCN3CCOCC3)C2c2ccccc2OC)c1C (stereo not given) |  | inactive: -5.5%
COc1cc(NC(=S)NCCc2ccc(S(N)(=O)=O)cc2)c(OC)cc1Cl |  | inactive: 3.62%
O=C(Nc1ccc(F)c(F)c1)c1oc2ccccc2c1NC(=O)C1CCCO1 (stereo not given) | inconclusive: 28.2 µM [inhibitor, partial curve] | 
COc1cccc(-n2c(SCC(=O)N3CCCCC3)nc3c([nH]c4ccccc43)c2=O)c1 | inconclusive: 8.91 µM [inhibitor, single point] | 
O=C(Nc1cnn(Cc2ccccc2)c1)NC12CC3CC(CC(C3)C1)C2 | inconclusive: 17.8 µM [activator, partial curve] | 
CN1C(=O)/C(=C/c2ccccc2OCc2ccccc2)NC1=S | inconclusive: 8.91 µM [inhibitor, partial curve] | 

Structure (SMILES) | Potency | activity, negative = inhibition
Cc1ccc(NC(=O)Cn2c(=O)n(CCC(=O)NCCc3ccccc3)c(=O)c3ccccc32)cc1 | inconclusive: 10 µM [inhibitor, partial curve, poor fit] | 
Cc1cc(Nc2cc(Cl)cc(Cl)c2)nc(N)n1 | inconclusive: 39.8 µM [activator, single point] | 
COc1cccc(NC(=O)CSc2nnc(COc3ccc4c(c3)CCCC4)o2)c1 | inconclusive: 25.1 µM [inhibitor, single point] | 
O=C(CCc1ccccc1)OCCN1CCOCC1 |  | inactive: 6.11%
COc1ccc(C(Nc2ccc(S(=O)(=O)NCC3CCCO3)cc2)C(=O)NC(C)(C)C)cc1OC (stereo not given) | inconclusive: 8.91 µM [inhibitor, single point] | 
CCCOc1ccc(OC(=O)c2c(-c3ccccc3Cl)noc2C)cc1 | inconclusive: 1.41 µM [inhibitor, full curve, poor fit] | 
O=C(CSc1nc(NS(=O)(=O)c2ccccc2)cc(=O)[nH]1)Nc1ccc(Cl)cc1 | inconclusive: 28.2 µM [inhibitor, partial curve] | 
COc1cccc(CN2C(=O)c3ccccc3Sc3ccc(C(=O)NCCc4ccc(Cl)cc4)cc32)c1 | inconclusive: 28.2 µM [inhibitor, single point] | 
O=[N+]([O-])c1cccc(Cl)c1NCCNc1ncc(C(F)(F)F)cc1Cl | inconclusive: 28.2 µM [inhibitor, single point] | 
CCOC(=O)c1c(C)oc2c1c(CN1CCN(C(=O)OCC)CC1)c(O)c1ccccc12 | inconclusive: 15.8 µM [activator, partial curve] | 
CCOC(=O)c1c(C)n(-c2ccccc2)c2ccc(OC(=O)c3ccc(OCC)c(OCC)c3)cc12 |  | inactive: -14.8%
CC1(OC(=O)c2cccs2)C(=O)C=C2C=C3CCCN3C=C2C1=O (stereo not given) | inconclusive: 5.01 µM [inhibitor, partial curve] and inconclusive: 7.08 µM [inhibitor, single point] | 
CC1(C)CC(=O)C=C(N2CCN(C3=CC(=O)CC(C)(C)C3)CC2)C1 |  | inactive: -8.57%
COCC(C)N1C(=O)Cc2c1nc(N)c1c(N)nc(N3CCN(c4ccccc4F)CC3)c(C#N)c21 (stereo not given) | inconclusive: 39.8 µM [inhibitor, single point] | 
CCC(=O)N(Cc1c(C)nn(-c2ccccc2)c1Cl)c1ccc(Cl)cc1 | inconclusive: 0.199 µM [inhibitor, full curve, poor fit] | 
C(=C\c1ccco1)/C=N/n1cnnc1 | active: 31.6 µM | 
O=C(NCc1ccccc1Cl)c1ccc(S(=O)(=O)Nc2cccc(C(F)(F)F)c2)cc1 | inconclusive: 28.2 µM [inhibitor, partial curve] | 
Cc1ccc(Cl)cc1N1CCN(CCCNc2ncnc3onc(-c4ccc(F)cc4)c23)CC1 |  | inactive: -6.44%
COc1cc(NC(=O)CSc2nc(C)c(C(=O)Nc3ccccc3)c(-c3ccc(OC)c(OC)c3)c2C#N)c(OC)cc1Cl |  | inactive: -8.98%
Nc1nc(-c2ccc(Br)cc2)c(S(=O)(=O)c2ccccc2)s1 | inconclusive: 17.8 µM [inhibitor, partial curve, poor fit] | 
CCOC(=O)c1c(C)oc2nc(C)nc(NCc3ccc(C)cc3)c12 | inconclusive: 3.55 µM [inhibitor, partial curve, poor fit] | 
